According to the supplement of paper PMC3334620:
The full ranking holds about 33,000 sequences; the median of “E-score (-0.5 to 0.5)” is about -0.01, and the highest 2% start at about 0.26. Some of the results follow.

Biological target: Ste12 (UniProt P13574)
Assay: PBM E-score (8-mer binding enrichment) (E-score (-0.5 to 0.5)); higher = stronger / more preferred TF binding; most listed sequences are background and not binding sites
Settings: protein concentration: 200 nM; construct: GST-DNA-binding domain
Method in brief: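 Universal all-10-mer Agilent arrays, double-stranded by primer extension on fresh or once-stripped slides, were probed with about 100-200 nM GST-tagged yeast transcription factors made by PURExpress. Fluorescent anti-GST detected bound protein, and masliner normalised the scans. E-scores from the Universal PBM Analysis Suite were given to each ungapped eight-base word pooled with its reverse complement.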

Row | Sequence | PBM E-score
1 | ACACTGCT | -0.0892
2 | CTCTCCGA | -0.0401
3 | GTACCCGA | -0.107
4 | CTAAATCA | 0.109
5 | AGAAATAG | -0.00818
6 | GATACACA | 0.037
7 | CATTTTGG | 0.0729
8 | CACAGACG | -0.174
9 | AGGACATA | -0.0599
10 | GACATAAA | 0.251
11 | GTCCTGTA | -0.0649
12 | GTATCCTA | -0.188
13 | ACTGGACT | -0.0549
14 | GGAACTCC | 0.0773
15 | TACATGAA | 0.201
16 | CACCTCGG | 0.0725
17 | ATATGCCG | 0.0198
18 | AGTAGCTC | -0.169
19 | GACAGTCA | -0.192
20 | TAGTTTCA | 0.36
21 | GTAAATAA | 0.168
22 | ATGTGAGC | -0.12
23 | TCAGGTCA | -0.015
24 | AAGATAGC | -0.0372
25 | AAGCTTTG | 0.0106

Row | Sequence | PBM E-score
26 | ACTCGTGA | 0.0781
27 | CGTCCCGC | 0.0259
28 | AACGTTCG | 0.104
29 | CACCTGCG | -0.0663
30 | ATATTGGC | 0.00373
31 | AAGCACCT | -0.154
32 | GCATAAAA | 0.188
33 | CCGGGTGA | 0.00512
34 | AAGTGCGT | -0.15
35 | CTCGGCAG | -0.0413
36 | GTATTCAA | 0.116
37 | AACAGAAT | 0.0107
38 | ACGGAGCG | 0.0287
39 | ACTTTAAT | 0.263
40 | ATGCAGTA | 0.037
41 | ATCCGCTG | -0.154
42 | AACTTCCG | 0.0772
43 | GAAAGAGA | 0.0789
44 | ACCGTCCC | -0.0797
45 | CTTCTAGA | 0.0489
46 | ACCCCGGA | -0.00092
47 | TGTACACA | 0.0305
48 | GCACTCAA | -0.197
49 | ATATCACG | -0.0106
50 | CGCATAAA | 0.0157

Row | Sequence | PBM E-score
51 | ATTAAGAC | 0.0185
52 | CCTGATTC | -0.0828
53 | GCGTGTCC | -0.229
54 | ACACATGT | 0.154
55 | CATTCAGA | 0.184
56 | ATCCGCTA | -0.129
57 | ACCTGGGC | -0.288
58 | GGTTGAAC | -0.0192
59 | CATTAACG | 0.0567
60 | AAGAATCA | 0.153
61 | CCCCGGGG | -0.186
62 | ATTTCTAC | 0.253
63 | ACTACTTG | -0.0513
64 | GCACGTGA | -0.119
65 | AACTTAAC | 0.235
66 | GAAGCACA | -0.135
67 | CAATCCCG | 0.321
68 | ATACCGTG | 0.0304
69 | AACGTACT | 0.11
70 | TCCAATAA | 0.0822
71 | CGCCCCGC | 0.0909
72 | ACATAGAC | 0.0996
73 | ACACATCC | -0.0267
74 | GACTGCAA | -0.0231
75 | AAGGCAAT | -0.00323

Row | Sequence | PBM E-score
76 | ATAGCCTG | -0.0913
77 | AAGCCCAG | 0.0302
78 | GGTGTTGA | -0.0828
79 | CTGACAAA | 0.091
80 | AAAGGATT | -0.00765
81 | CAACCACA | 0.0344
82 | AAAAGGCA | 0.185
83 | AAAGTGCT | 0.0194
84 | AGCACCGA | 0.0738
85 | ATACTGGA | 0.176
86 | CTTCTTCC | -0.124
87 | AGCCAACC | 0.0798
88 | AAGACGAC | 0.00196
89 | TGAGATCA | -0.0953
90 | ACACTGCA | -0.172
91 | ACGTTTGG | 0.127
92 | ACCGGGGA | -0.0805
93 | ATGTATCG | 0.0479
94 | ATCAGGTG | -0.0202
95 | GTGTAAAC | -0.114
96 | AAGGCATC | -0.058
97 | CTAAAGCA | 0.0923
98 | AGAGACTC | -0.127
99 | CGAGTGCG | -0.0316
100 | CTAGAGTC | -0.188

Row | Sequence | PBM E-score
101 | AGGCAGGC | -0.144
102 | ATGGACAA | -0.0663
103 | AGGGTATG | -0.0375
104 | CCAATTCC | 0.0558
105 | ATTATCGC | 0.15
106 | CGGAAAAA | 0.343
107 | AACTGTGG | 0.127
108 | CGCGTCAG | -0.202
109 | GAGAGGAA | -0.0121
110 | ATACTCAT | -0.0101
111 | AATCAAAT | 0.196
112 | ACCAGAAC | 0.189
113 | AGAAAGGA | -0.0699
114 | ATTTAACA | 0.181
115 | TAAGACTA | -0.073
116 | GAGAATCC | -0.126
117 | GAATTTGA | 0.1
118 | AACTCGAG | 0.146
119 | GAAGGGAA | -0.165
120 | CTTAATAC | 0.207
121 | ACCTCTCC | -0.174
122 | AAAGATCG | 0.0688
123 | CGTCTCAG | 0.149
124 | ACAGTGGA | -0.0823
125 | CGAGCGTA | -0.137

Row | Sequence | PBM E-score
126 | CATAGCTC | -0.166
127 | CGATGATA | -0.0622
128 | CAGGGTCC | -0.0999
129 | CAGATTAC | 0.0121
130 | ACGATGTA | -0.158
131 | CAATACCC | -0.00702
132 | TCCGAAGA | 0.043
133 | CGCAATAG | 0.135
134 | CGATGGCA | 0.0478
135 | ACCGACGG | 0.0928
136 | AACGCATA | 0.0787
137 | CTGTGTTC | -0.041
138 | AGTCACAG | -0.0285
139 | CCCCCGCA | -0.15
140 | CAGAAAGG | -0.0302
141 | TTACGCAA | 0.0927
142 | AACAGTGA | 0.18
143 | GTACAGTA | 0.0242
144 | TGGCGAAA | 0.135
145 | TAGCACAA | -0.0915
146 | CTTCAATA | 0.00592
147 | GTGATAAA | 0.131
148 | GCGTCCAA | -0.13
149 | TACGCTCA | -0.0351
150 | CAGGGAAG | -0.157

Row | Sequence | PBM E-score
151 | CGGAGAAC | -0.175
152 | TGTTACAA | 0.387
153 | GTACTCGA | -0.177
154 | GAGATCTA | 0.0239
155 | CATATGAA | 0.176
156 | GGAGCTAC | -0.161
157 | ACGCTCGC | 0.15
158 | AGAGTCTG | -0.119
159 | AGCTAATC | 0.0509
160 | TAGCCAGA | -0.0355
161 | GTCCACGA | -0.134
162 | ACAGGGAA | -0.0357
163 | AGCCCAGC | -0.211
164 | AATTGTAA | 0.118
165 | GGAGTGTA | -0.0442
166 | ATTTACCC | 0.125
167 | ACCATAAA | 0.278
168 | CCCAATAC | -0.0496
169 | AAGAACCC | 0.0789
170 | GAGTGTCA | 0.0324
171 | AGAGTGCA | -0.0994
172 | TAGACGAA | 0.0213
